Results: publication PMC4336329 (PLoS ONE, 2015)
The campaign covered roughly 310,000 compounds. About 2,200 (0.71%) showed an effect of 50% or more. Effects have a minus sign here. The list shows a part of the results.

The molecules below were run against human ether-à-go-go-related gene (hERG) potassium channel (human, UniProt Q12809) (assay: primary screen, population patch clamp on CHO cells stably expressing hERG).
Sequence of human ether-à-go-go-related gene (hERG) potassium channel (Q12809 whole entry, looked up): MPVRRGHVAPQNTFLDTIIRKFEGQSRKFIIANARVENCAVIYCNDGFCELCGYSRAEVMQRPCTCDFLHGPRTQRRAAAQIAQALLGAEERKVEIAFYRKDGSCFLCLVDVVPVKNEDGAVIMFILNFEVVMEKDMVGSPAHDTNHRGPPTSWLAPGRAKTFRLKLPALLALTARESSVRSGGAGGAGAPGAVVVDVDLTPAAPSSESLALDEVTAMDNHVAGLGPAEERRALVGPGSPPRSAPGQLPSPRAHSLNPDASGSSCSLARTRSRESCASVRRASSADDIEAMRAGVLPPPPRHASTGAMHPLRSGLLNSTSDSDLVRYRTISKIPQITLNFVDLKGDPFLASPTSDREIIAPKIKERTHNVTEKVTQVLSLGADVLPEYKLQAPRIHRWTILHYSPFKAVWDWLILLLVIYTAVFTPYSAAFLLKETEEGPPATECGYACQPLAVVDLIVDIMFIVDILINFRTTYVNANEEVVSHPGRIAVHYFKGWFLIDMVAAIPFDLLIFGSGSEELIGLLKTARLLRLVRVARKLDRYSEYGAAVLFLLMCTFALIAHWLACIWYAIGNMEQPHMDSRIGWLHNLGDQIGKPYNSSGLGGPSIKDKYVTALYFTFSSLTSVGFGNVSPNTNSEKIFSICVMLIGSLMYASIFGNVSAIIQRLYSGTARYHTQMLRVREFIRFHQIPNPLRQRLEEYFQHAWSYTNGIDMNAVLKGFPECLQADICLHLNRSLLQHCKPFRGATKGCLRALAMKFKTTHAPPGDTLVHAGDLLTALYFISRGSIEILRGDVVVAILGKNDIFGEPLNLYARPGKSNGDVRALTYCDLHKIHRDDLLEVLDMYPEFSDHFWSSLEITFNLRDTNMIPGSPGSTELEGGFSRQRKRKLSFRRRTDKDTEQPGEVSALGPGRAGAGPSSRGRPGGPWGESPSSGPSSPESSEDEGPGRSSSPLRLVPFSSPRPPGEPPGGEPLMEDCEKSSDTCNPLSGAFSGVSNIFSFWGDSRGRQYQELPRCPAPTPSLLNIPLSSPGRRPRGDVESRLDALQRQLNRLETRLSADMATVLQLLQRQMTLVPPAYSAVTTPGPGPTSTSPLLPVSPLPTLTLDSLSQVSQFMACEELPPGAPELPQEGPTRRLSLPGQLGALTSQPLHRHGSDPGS

SMILES	hERG current change (%, negative = inhibition) at 1uM [%]
COc1ccc(N2C(=O)C3C(C2=O)C(C(=O)c2ccccc2)N2CCCC32)cc1 (stereo not drawn)	-7.02
CCOC(C(=O)OCCC[N+](C)(CC)CC)(c1ccccc1)c1ccccc1.COS(=O)(=O)[O-]	15.8
Nc1cc(N)nc(SCC(=O)Nc2ccc(Br)cc2Cl)n1	11.4
COC(=O)[C@H](Cc1ccccc1)NC(=O)NCC1CCCO1 (stereo partly drawn)	12.6
CCOC(=O)Cn1c(=O)c2c(nc3n2CCCCN3c2ccc(C)cc2)n(C)c1=O	1.3
COC(=O)[C@H]1CN(C(=O)c2ccccc2)C(=O)N1	6.04
O=C(Nc1cccc2c1C(=O)NC2=O)c1ccc(S(=O)(=O)N2CCCC2)cc1	8.89
OC(CNc1nc(-c2cccnc2)nc2ccccc12)c1ccccc1 (stereo not drawn)	2.49
CCCOC(=O)CSc1nnc(-c2cc(OC)c(OC)c(OC)c2)o1	4.15
C=C(C)CN(CC)C(=O)CSc1nc2ncc(Cl)cc2[nH]1	12
Cc1c(C(=O)Nc2ccc(OC(F)(F)F)cc2)sc2nc3n(c(=O)c12)CCC3	5.34
CCOc1ccc(CC(=O)Nc2sc(Cc3ccccc3)c(C)c2C(N)=O)cc1OCC	-12.2
COc1ccc(CSc2ccc(S(=O)(=O)N3CCCCC3)cn2)cc1F	5.51
Cc1ccc(/C=N/NC(=O)c2cc(-c3ccc(C)o3)[nH]n2)cc1	10.9
CN(C)CCCNc1nc(-c2ccccc2)c2c(c1C#N)CC(C)(C)OC2	-11.3
CCOc1ccc(/C(O)=C2/C(=O)C(=O)N(c3ccccn3)C2c2ccc(Cl)cc2)c(C)c1 (stereo not drawn)	13.6
CC(C)CN1C(=O)c2ccc(NC(=O)c3ccco3)cc2C1=O	7.71
COC(=O)NCCOc1nc(N(C)C)nc(N(C)C)n1	18.4
COc1ccc(/C=N/NC(=O)c2cccc([N+](=O)[O-])c2)cc1OC(=O)c1ccc(C)cc1	10.3
COc1cc2ncnc(NCc3cccc(Cl)c3)c2cc1OC	3.07
COc1cccc(CN(C)C(=O)c2cc(S(=O)(=O)N3CCN(c4ccccc4)CC3)ccc2Cl)c1	-3.75
COc1ccc(CCNC(=O)C23CN(Cc4ccccc4)CC2C(c2cccc([N+](=O)[O-])c2)=NO3)cc1 (stereo not drawn)	9.54

SMILES	hERG current change (%, negative = inhibition) at 1uM [%]
CC(=O)N1CCCN(C(=O)c2ccc3nc(Cc4cccc(Cl)c4)oc3c2)CC1	17.7
CSCCC(NC(=O)c1cc(CC(C)C)oc1C)C(=O)O (stereo not drawn)	8.21
CCOc1ccc(S(=O)(=O)N2CCC(C(=O)NCc3ccncc3)CC2)cc1C	11.3
CC(=O)/C(=C/c1ccccc1)C(=O)Nc1ccccc1C	12.4
CC1CCN(C(=O)CNC(=O)c2ccc(Cl)cc2Cl)CC1	-7.68
COc1cc(OC)cc(C2C(C#N)=C(N)Oc3n[nH]c(-c4cccnc4)c32)c1 (stereo not drawn)	13.1
CCOC(=O)c1[nH]c2ccc(OC)cc2c1NC(=O)CN1CCSCC1	3.88
COc1ccc(Cc2nnc(SCC(=O)c3ccc4c(c3)OCO4)o2)cc1	5.92
CCOc1ccc(N2C(=O)Nc3ccccc3C2(O)C(=O)NCc2ccc(F)cc2)cc1 (stereo not drawn)	7.42
Cc1[nH]c2ccccc2c1C(=O)CN1CC(C)CC(C)C1 (stereo not drawn)	5.19
CCOC(=O)C(O)(C1C(=O)CC(C)(C)CC1=O)C(F)(F)F (stereo not drawn)	14.7
O=C(N/N=C/c1ccccc1O)c1cccc(C(F)(F)F)c1	-0.455
CCCCCCCCC(=O)NCCOc1ccccc1	0.192
Cc1nn(-c2ccccc2)c2sc(C(=O)NCCN3CCOCC3)cc12	3.27
Cc1cc(=O)oc2cc(OCCCN3C(=O)c4ccccc4C3=O)ccc12	-0.574
Cc1cc(C)n(-c2ccc(C(=O)Nc3cccc(S(=O)(=O)N4CCCC4)c3)cc2)n1.Cl	18.8
Cc1nc(N2CCCCC2)c(C#N)c(C)c1[N+](=O)[O-]	22.3
Cc1cc(C(=O)Cn2nc(C(=O)O)c3ccccc3c2=O)c(C)n1-c1ccc(OC(F)F)cc1	9.19
Cn1ncc(N=Cc2ccc([N+](=O)[O-])cc2)c1C(=O)Nc1ccccc1	20.8
Cc1ccc(/C(O)=C2\C(=O)C(=O)N(c3cc(C)on3)C2c2cccc(Cl)c2)cc1 (stereo not drawn)	21.3
CNc1cc(N2CCN(S(=O)(=O)N(C)C)CC2)ccc1[N+](=O)[O-]	0.411
CC(C)=CCOc1c2occc2cc2ccc(=O)oc12	-1.76

SMILES	hERG current change (%, negative = inhibition) at 1uM [%]
COc1cccc(-c2cc(C(=O)Nc3ccc([N+](=O)[O-])cn3)c3ccccc3n2)c1	-20.7
COCCSc1nnc(NC(=O)CS(=O)(=O)c2ccccc2)s1	13.8
COc1ccc(OC)c(-n2nnnc2SCC(=O)NCc2ccc3c(c2)OCO3)c1	-2.98
O=C(COC(=O)/C=C/c1ccccc1[N+](=O)[O-])NC1CCS(=O)(=O)C1 (stereo not drawn)	12.5
CC(NC(=O)CNC(=O)c1sc2ccccc2c1Cl)c1cccnc1 (stereo not drawn)	11.1
COc1cc(OC)c(NC2=CC(=O)C(=O)c3ccccc32)cc1Cl	13.6
CC1CCN(CCCCOc2cccc(Br)c2)CC1.O=C(O)C(=O)O	-47.8
O=C(Cn1cc(S(=O)(=O)Cc2ccccc2)c2ccccc21)N1CCOCC1	12.2
Cc1cccc(-c2cc3c(N=O)c4ccccc4c-3n[nH]2)c1	16.9
COc1ccc(-n2nc(C(=O)Nc3ccc(OC)c(OC)c3)c3c4ccccc4n(C)c3c2=O)cc1	7.44
O=C(c1c(F)c(F)c(F)c(F)c1F)N1CCc2ccccc21	18.5
Cc1ccc(S(=O)(=O)n2c(N)nc3ccccc32)cc1	11.3
Cc1ccccc1NC(=O)C1Cc2ccccc2CN1C(=O)OCc1ccccc1 (stereo not drawn)	11.6
COc1ccc(-c2n[nH]c(=S)n2-c2ccc3c(c2)OCCO3)cc1	7
CCOc1ccc(N2C(=O)Nc3ccccc3C2(O)C(=O)NCc2ccco2)cc1 (stereo not drawn)	1.3
CCCCN1CC(=O)N2[C@H]3c4ccc(OC)cc4OC[C@@H]3[C@H](c3ccccc3)[C@]2(C)C1=O	6.54
COc1ccc(NC(=O)C2C3CCC(O3)C2C(=O)O)c(OC)c1 (stereo not drawn)	21.5
CCc1nc2c(C#N)c(-c3ccc(Cl)cc3)ccn2n1	6.82
S=C(NCc1ccco1)N1CCC(c2nc3ccccc3o2)CC1	3.86
CN(Cc1ccc(F)cc1)S(=O)(=O)c1nnc(NC(=O)c2ccccc2Br)s1	13.6
COC(=O)CNC(=O)c1cn(CC(C)C)c(=O)c2cc(OC)c(OC)cc12	-1.19
COc1cccc(NC(=O)COc2ccc(Br)c(C)c2)c1	17.7

SMILES	hERG current change (%, negative = inhibition) at 1uM [%]
CC1=C(C(=O)OC(C)C)C(c2ccccn2)n2ncnc2N1 (stereo not drawn)	4.25
O=c1c2cnn(-c3ccccc3)c2ncn1Cc1ccccn1	14.1
O=C(NCCCCCCNC(=O)OC1CCS(=O)(=O)C1)OC1CCS(=O)(=O)C1 (stereo not drawn)	13.4
N#C/C(=C/c1ccc(N2CCOCC2)o1)c1ccc(Cl)cc1	2.32
CCCN(Cc1cc2cc(OC)ccc2[nH]c1=O)C(=O)c1ccco1	-0.0107
CCOc1ccc(OCCCCN2CCCC2)cc1.O=C(O)C(=O)O	11.6
CCN(CC)CC(=O)c1c[nH]c2ccccc12	6.08
COc1ccccc1C(=O)Nc1ccccc1N1CCCCC1	5.41
CC(C)(C)C1CCc2[nH]nc(C(=O)O)c2C1 (stereo not drawn)	15.2
COc1ccc(NC(=S)NC(=O)/C=C/c2cccs2)cc1	12.9
O=C(Nc1ccc(N2CCCCC2)c(Cl)c1)c1ccc(N2CCOCC2)c([N+](=O)[O-])c1	13.3
Cc1ccc(-n2c(COc3cccc(C)c3)n[nH]c2=S)cc1	3.06
O=C(Nc1cccc(-c2ccc3nncn3n2)c1)c1ccco1	6.16
CCCC(=O)C1=C(O)C(C(=O)OC)C(C)(C)CC1=N (stereo not drawn)	10.3
CN(C(=O)CSC(=O)c1ccccc1)c1ccccc1	29.5
COc1ccc(CN2CCN(C(=O)c3ccco3)CC2)cc1OC.O=C(O)C(=O)O	20
COc1ccccc1NS(=O)(=O)c1cccc(C(=O)NCC2(N(C)C)CCCCC2)c1	1.73
O=C(NCCN1C(=O)S/C(=C\c2cccnc2)C1=O)c1cccc(OC(F)F)c1	0.344
CSc1nc(-c2ccco2)nn1C(=O)c1ccccc1	12.7
CCn1ccnc1CN1CCC(n2nccc2NC(=O)CCc2ccccc2)CC1	15.9
O=C(CCN1C(=O)c2ccccc2C1=O)Nn1cnnc1	3.03
